Source: the supplement of paper PMC3334620
The full ranking holds about 33,000 sequences; the median of “E-score (-0.5 to 0.5)” is about -0.041, and the highest 2% start at about 0.37. Some of the results follow.

Each sequence was assayed against T1, Ecm22 (UniProt Q05958) (assay: PBM E-score (8-mer binding enrichment) (E-score (-0.5 to 0.5)); higher = stronger / more preferred TF binding; most listed sequences are background and not binding sites). Settings: protein concentration: 200 nM; construct: GST-full length.
T1 sequence: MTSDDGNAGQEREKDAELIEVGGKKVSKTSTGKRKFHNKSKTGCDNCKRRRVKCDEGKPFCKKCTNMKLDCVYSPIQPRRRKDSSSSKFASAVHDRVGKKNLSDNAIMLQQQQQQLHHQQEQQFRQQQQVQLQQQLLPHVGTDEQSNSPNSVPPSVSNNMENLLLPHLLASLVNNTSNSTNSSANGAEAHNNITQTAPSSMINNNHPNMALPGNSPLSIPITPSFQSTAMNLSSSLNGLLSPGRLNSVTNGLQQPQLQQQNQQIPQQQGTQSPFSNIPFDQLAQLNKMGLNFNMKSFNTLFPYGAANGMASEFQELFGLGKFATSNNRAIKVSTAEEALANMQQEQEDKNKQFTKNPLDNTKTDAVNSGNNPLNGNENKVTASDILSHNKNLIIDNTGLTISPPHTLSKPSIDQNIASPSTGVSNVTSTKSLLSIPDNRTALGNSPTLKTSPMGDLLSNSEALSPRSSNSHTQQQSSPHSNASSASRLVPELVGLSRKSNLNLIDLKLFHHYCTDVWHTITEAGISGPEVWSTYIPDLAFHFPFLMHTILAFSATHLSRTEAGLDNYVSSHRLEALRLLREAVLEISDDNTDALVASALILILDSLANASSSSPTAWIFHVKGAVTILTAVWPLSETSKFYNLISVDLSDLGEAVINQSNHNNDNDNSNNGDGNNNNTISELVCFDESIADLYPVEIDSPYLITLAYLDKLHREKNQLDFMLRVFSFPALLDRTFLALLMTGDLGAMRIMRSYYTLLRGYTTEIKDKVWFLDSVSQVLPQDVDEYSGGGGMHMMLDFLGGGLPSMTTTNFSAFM
Method in brief: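 Bound GST-tagged yeast transcription factors, applied at about 100-200 nM to double-stranded universal all-10-mer Agilent arrays, were detected with fluorescent anti-GST. Scans were normalised with masliner. A modified Wilcoxon-Mann-Whitney statistic, the E-score, was assigned to each ungapped eight-base word pooled with its reverse complement by the Universal PBM Analysis Suite.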

| Sequence | PBM E-score |
| --- | --- |
| GACACAAA | -0.0464 |
| CCTTTCTA | -0.15 |
| ACCCCAGG | -0.243 |
| CTTAACGC | -0.0209 |
| AGTCAGAT | -0.259 |
| AACCAGCT | -0.0488 |
| CTGGAACC | -0.0207 |
| CGTTGACC | 0.121 |
| GAAGCATC | -0.125 |
| CAGCTGGC | -0.163 |
| CCAATGGA | -0.0624 |
| ACGACGAC | 0.364 |
| GCTCGTCC | -0.109 |
| GAACATCA | -0.048 |
| CAGTGCGC | -0.23 |
| ATGTGTAA | -0.124 |
| AGGCTATG | -0.311 |
| CGTGATTA | 0.122 |
| CCAGGCGC | -0.275 |
| GAGTTAAC | 0.00421 |
| TTCCCAAA | -0.0335 |
| CAACGCCA | -0.129 |
| CATGCTGA | -0.125 |
| CTTGACAC | -0.31 |
| ATCCGGCC | 0.0537 |

| Sequence | PBM E-score |
| --- | --- |
| GCCCTATA | -0.00087 |
| TAAAAAGA | -0.0977 |
| ACGTGCGC | 0.138 |
| ATCATACG | 0.404 |
| AAGGAACG | 0.458 |
| ATACTGAA | -0.0116 |
| AACACCTG | -0.0273 |
| AGCCGCCG | -0.284 |
| ATACGAGC | 0.49 |
| GTTCTGTA | 0.0672 |
| CATACTGG | -0.0994 |
| ACTTCAGG | -0.235 |
| AGAACATA | 0.17 |
| AATACTCA | 0.0462 |
| ACGACAGT | 0.382 |
| TACGCGCA | 0.222 |
| AGTCTGGC | -0.23 |
| CGAACATC | 0.28 |
| GTCCCAGA | -0.0437 |
| AGTGGAGA | -0.128 |
| CTCACGAC | -0.0734 |
| AAGGCTGG | -0.36 |
| CCCAAAAG | -0.105 |
| ATAGTGGC | -0.0188 |
| ATAGGGGG | -0.317 |

| Sequence | PBM E-score |
| --- | --- |
| AGCCTTAG | -0.206 |
| AGGTGTGC | -0.187 |
| ACATTATG | 0.117 |
| GATTGAAA | 0.0283 |
| CCTCAGAG | -0.243 |
| CCCGTGCA | -0.0742 |
| CGACGCTA | 0.2 |
| CTATATGC | -0.044 |
| AGCCGAGG | 0.125 |
| AATTTGAA | 0.139 |
| CCGATAAG | -0.138 |
| GATCTAGC | 0.0954 |
| CTAGTATC | 0.0309 |
| ACATGTTA | 0.0744 |
| CATAAGCA | -0.195 |
| TAACACCA | 0.0673 |
| AACATACT | 0.0945 |
| GCTTATAA | -0.00159 |
| ACCGCAGA | -0.232 |
| TCTCGAGA | -0.0403 |
| AGGTCTAT | 0.0387 |
| AGATCAAT | -0.086 |
| ACTGGCCC | -0.0753 |
| AATGTGGG | -0.217 |
| CCAGGGGG | -0.264 |

| Sequence | PBM E-score |
| --- | --- |
| CCGGGGTA | -0.134 |
| GCGAACAA | 0.148 |
| GCGTCTCA | -0.114 |
| AACAGGGC | -0.165 |
| AAGAGACA | -0.0438 |
| ACCGCCCA | -0.0354 |
| CTCAAATC | -0.0263 |
| CCACGGCC | -0.268 |
| AACCAAAG | -0.0743 |
| AGCATTCC | -0.0497 |
| CAAACCTA | -0.0906 |
| CAACATAG | -0.155 |
| CTTTTTTA | -0.19 |
| ACCTACTA | 0.0006 |
| TTACCGAA | 0.238 |
| ATAGGATC | -0.135 |
| ATTATGCG | 0.323 |
| TGATATCA | -0.00319 |
| CTATCACA | -0.0749 |
| GCTTACCA | 0.0496 |
| ACTGTGAG | -0.105 |
| GAGTAAAC | 0.178 |
| ATTACGTA | 0.293 |
| AGCTCGGG | 0.0858 |
| GTTAGAAC | 0.19 |

| Sequence | PBM E-score |
| --- | --- |
| AATCAGTA | -0.0193 |
| GCGATGTA | 0.0758 |
| AATGCTTC | 0.0923 |
| AGTCTGTG | -0.124 |
| GGACGTGA | -0.281 |
| ACCTCTGC | -0.265 |
| AGTACCAG | -0.14 |
| CACTACAC | -0.0528 |
| TAACCGGA | 0.0721 |
| CTTTGGCC | -0.0348 |
| CGTTTGGA | 0.366 |
| CGGGCATA | 0.0598 |
| AAGCTGCG | -0.0563 |
| TCAACCAA | -0.0924 |
| AATGAGAC | -0.205 |
| TGATGTAA | -0.0508 |
| ACCTTGAT | -0.0399 |
| GTGGTTCA | -0.0549 |
| ATCCACCC | -0.122 |
| TCAGTGAA | -0.0633 |
| ACCTGGCG | -0.188 |
| CCATGATC | -0.191 |
| GGCCTAAC | 0.121 |
| CAACTGCC | -0.127 |
| GCTAGGGA | -0.162 |

| Sequence | PBM E-score |
| --- | --- |
| CCAAGACC | -0.208 |
| CTTTTTCA | -0.183 |
| AGATATAA | 0.0987 |
| ATCGTTCA | 0.402 |
| CTAAAGAC | -0.258 |
| AACCTATT | -0.0935 |
| AGGGAACG | 0.465 |
| ACTGATTG | -0.186 |
| CCCTAAGA | -0.219 |
| ACGTGAAG | 0.0312 |
| ATGAGCAC | -0.201 |
| CCACGTAC | 0.217 |
| CAGCGAGA | 0.0257 |
| AGCTATAA | -0.0374 |
| CGGGGAAG | 0.05 |
| GATCCAGC | 0.0799 |
| AAAGAAAC | 0.0695 |
| ATTCTGGC | -0.0142 |
| AAAAATCC | -0.12 |
| GCTCCGAA | 0.11 |
| AGTATTCC | -0.00408 |
| CAGCACTA | -0.0815 |
| TATTTGCA | 0.00921 |
| TGTCCACA | -0.289 |
| CCCAGTTC | -0.0249 |

| Sequence | PBM E-score |
| --- | --- |
| GGAGCCGA | -0.112 |
| AAGTATTG | -0.0862 |
| GTGTTTGA | 0.166 |
| ACACTGAT | -0.254 |
| GAACGGAC | 0.279 |
| AAGCATTG | -0.0154 |
| AAGGGTAC | 0.121 |
| AACAAGTG | -0.137 |
| AGGAGATC | -0.0503 |
| AGCCTTAA | -0.0857 |
| GTGGAGCA | -0.158 |
| AATCTTCA | -0.0276 |
| CGACCCAC | 0.0554 |
| AGGAAGCC | -0.166 |
| GAAGCTTC | -0.158 |
| GGCATCCA | -0.2 |
| CCGAGGTA | 0.176 |
| GAATTCAA | 0.00313 |
| GGTTAGCA | -0.263 |
| AAAAATGC | -0.0643 |
| AGATGCAC | -0.054 |
| CAAAGTCA | -0.102 |
| CTTGCCGC | -0.168 |
| CTATTCGA | 0.0817 |
| GCGTTTCA | -0.0209 |

| Sequence | PBM E-score |
| --- | --- |
| GGTGTCCA | -0.122 |
| ACTGAAAG | -0.138 |
| CCAGCGTA | 0.188 |
| CCCTTGGA | -0.0297 |
| ATTACACC | 0.118 |
| CTACGCAC | -0.0139 |
| CGTTACAC | 0.132 |
| AGCTATGC | -0.0776 |
| CAATGGCA | -0.196 |
| CTACTTAC | -0.027 |
| CATCTGAC | -0.203 |
| AACAATTA | 0.113 |
| GGTGGGAC | -0.144 |
| GCCGAACC | -0.0959 |
| AATTCTGT | -0.164 |
| AACTATCC | 0.0177 |
| ATGGCGCA | 0.0936 |
| CGATCGAA | 0.164 |
| AATCCGCG | -0.0546 |
| ACTATTTA | 0.133 |
| CACATAGC | -0.133 |
| CCAGTACC | -0.108 |
| GAGTAGTA | 0.00049 |
| CCTACCCG | 0.0261 |
| AGCCGGGG | -0.213 |

| Sequence | PBM E-score |
| --- | --- |
| ATGTGGTC | 0.0104 |
| TAAGTGCA | 0.0499 |
| AATCATAA | -0.0666 |
| CCGCTACC | 0.135 |
| ACCCAAAT | -0.0546 |
| GATAGGGA | -0.176 |
| AGACACTA | 0.084 |
| ATGTCCCA | -0.233 |
| GGATGCTA | 0.0216 |
| ATTCCAAG | -0.153 |
| TACCTGCA | 0.0113 |
| CACTCGGA | 0.198 |
| ACCCCGCT | 0.0272 |
| CCAGTTGA | -0.161 |
| GAGAAAGC | 0.0505 |
| GATAGATC | 0.146 |
| AACCACGT | 0.023 |
| ACTCCTGA | -0.135 |
| AGTACACG | 0.238 |
